{"source": "paper PMC4336329", "about": "(PLoS ONE, 2015)", "note": "The whole screen tested about 310,000 compounds, of which about 2,200 (0.71%) showed an effect of 50% or more. The effect is printed as a negative number. The list shows a part of the results."}
{"biological_target": "human ether-à-go-go-related gene (hERG) potassium channel (human, UniProt Q12809)", "sequence (Q12809 whole entry, looked up)": "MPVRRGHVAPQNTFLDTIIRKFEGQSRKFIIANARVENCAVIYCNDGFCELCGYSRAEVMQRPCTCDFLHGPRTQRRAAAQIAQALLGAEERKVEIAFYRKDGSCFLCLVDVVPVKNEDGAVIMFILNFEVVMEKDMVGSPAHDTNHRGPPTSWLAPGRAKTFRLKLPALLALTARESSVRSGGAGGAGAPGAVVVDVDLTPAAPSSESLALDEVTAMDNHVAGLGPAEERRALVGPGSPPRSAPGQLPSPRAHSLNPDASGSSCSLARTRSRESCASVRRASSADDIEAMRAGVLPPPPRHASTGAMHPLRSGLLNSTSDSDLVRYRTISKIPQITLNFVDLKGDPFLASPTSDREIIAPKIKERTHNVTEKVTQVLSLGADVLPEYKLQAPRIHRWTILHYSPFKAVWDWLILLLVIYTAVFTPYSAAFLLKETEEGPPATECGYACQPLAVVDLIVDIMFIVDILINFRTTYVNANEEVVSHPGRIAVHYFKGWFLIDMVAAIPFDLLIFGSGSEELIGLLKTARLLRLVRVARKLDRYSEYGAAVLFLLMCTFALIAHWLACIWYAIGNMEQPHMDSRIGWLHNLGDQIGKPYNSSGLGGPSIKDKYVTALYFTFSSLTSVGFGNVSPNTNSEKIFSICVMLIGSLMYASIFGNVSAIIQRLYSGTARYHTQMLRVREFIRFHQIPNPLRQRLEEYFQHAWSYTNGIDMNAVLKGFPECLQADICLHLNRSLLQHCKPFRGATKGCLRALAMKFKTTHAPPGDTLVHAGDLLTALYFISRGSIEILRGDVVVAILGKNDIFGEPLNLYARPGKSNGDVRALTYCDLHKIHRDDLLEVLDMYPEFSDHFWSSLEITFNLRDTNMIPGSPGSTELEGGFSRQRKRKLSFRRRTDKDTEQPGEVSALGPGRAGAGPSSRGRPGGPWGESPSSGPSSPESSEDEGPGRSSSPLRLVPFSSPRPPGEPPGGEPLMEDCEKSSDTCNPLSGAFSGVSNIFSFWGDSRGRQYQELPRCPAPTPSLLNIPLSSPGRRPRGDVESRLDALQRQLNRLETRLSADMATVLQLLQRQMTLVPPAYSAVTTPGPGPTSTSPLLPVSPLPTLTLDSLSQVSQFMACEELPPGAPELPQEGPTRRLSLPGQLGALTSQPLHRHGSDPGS", "experiment": "primary screen, population patch clamp on CHO cells stably expressing hERG", "units": {"hERG current change (%, negative = inhibition) at 1uM": "%"}}
{"smiles": "CCC(=O)N1CCN(c2c(Cl)cccc2[N+](=O)[O-])CC1", "hERG current change (%, negative = inhibition) at 1uM": -0.627}
{"smiles": "O=C(COC(=O)C1=COCCO1)Nc1ccc(F)c(F)c1", "hERG current change (%, negative = inhibition) at 1uM": 8.98}
{"smiles": "CCc1ccc(NC(=O)[C@H](C)NC(=O)C2CCN(C(=O)[C@@H](N)Cc3ccccc3)CC2)cc1", "hERG current change (%, negative = inhibition) at 1uM": -8.45}
{"smiles": "Cc1ccc(/C=C/C(=O)N2CCCN(C(=O)/C=C/c3ccc(C)cc3)CC2)cc1", "hERG current change (%, negative = inhibition) at 1uM": -53.5}
{"smiles": "O=C(COc1ccc(S(=O)(=O)Nc2ccccc2)cc1)NCc1ccccn1", "hERG current change (%, negative = inhibition) at 1uM": -6.72}
{"smiles": "NS(=O)(=O)c1c(Sc2ccccc2C(=O)O)ccc2ccccc12", "hERG current change (%, negative = inhibition) at 1uM": 21.1}
{"smiles": "CC(=O)C1=C(C)N(Cc2ccccc2)C(=O)N[C@@H]1c1cccc(C(F)(F)F)c1", "hERG current change (%, negative = inhibition) at 1uM": 4.96}
{"smiles": "COc1ccc(C)cc1NC(=O)NC(C)c1ccc2c(c1)OCO2", "note": "(stereo not drawn)", "hERG current change (%, negative = inhibition) at 1uM": 13.7}
{"smiles": "S=c1[nH]nc(-c2cc3ccccc3o2)n1Cc1ccccc1", "hERG current change (%, negative = inhibition) at 1uM": 18}
{"smiles": "COc1ccc(NC(=O)/C(=C\\c2ccccc2)NC(=O)c2ccco2)cc1", "hERG current change (%, negative = inhibition) at 1uM": 12.2}
{"smiles": "COc1ccc(NC(=O)CCN2CCCCCC2)c(OC)c1.Cl", "hERG current change (%, negative = inhibition) at 1uM": 9.69}
{"smiles": "COc1ccc(S(=O)(=O)NCCOc2ccccc2)cc1C", "hERG current change (%, negative = inhibition) at 1uM": 8.19}
{"smiles": "CC(=O)NC(C)c1nc2ccccc2n1C(C)C", "note": "(stereo not drawn)", "hERG current change (%, negative = inhibition) at 1uM": -4.54}
{"smiles": "O=C(NCc1ccccn1)c1ccc([N+](=O)[O-])cc1", "hERG current change (%, negative = inhibition) at 1uM": -6.03}
{"smiles": "O=C(O)C1=C[C@H](c2ccc(C(F)(F)F)cc2)C[C@H](OCc2ccc(CO)cc2)O1", "hERG current change (%, negative = inhibition) at 1uM": 11.2}
{"smiles": "NC(=O)C(c1ccccc1)c1ncc(C(F)(F)F)cc1Cl", "note": "(stereo not drawn)", "hERG current change (%, negative = inhibition) at 1uM": 3.55}
{"smiles": "COc1cc2[nH]c(=O)n(Cc3ccccc3Cl)c(=O)c2cc1OC", "hERG current change (%, negative = inhibition) at 1uM": -3.33}
{"smiles": "CCCNC(=O)c1nn2c(C(F)(F)F)cc(-c3ccccc3)nc2c1Br", "hERG current change (%, negative = inhibition) at 1uM": 18.9}
{"smiles": "COc1ccc(CC(=O)NNC2=Nc3cccc4cccc2c34)cc1OC", "hERG current change (%, negative = inhibition) at 1uM": 4.48}
{"smiles": "O=C(NCc1cccc(C(F)(F)F)c1)C1CCCN(c2cnccn2)C1", "note": "(stereo not drawn)", "hERG current change (%, negative = inhibition) at 1uM": -9.9}
{"smiles": "Cc1cc2c(cc1C)NC(c1nc3ccccc3[nH]1)C1=C(CC(C)(C)CC1=O)N2", "note": "(stereo not drawn)", "hERG current change (%, negative = inhibition) at 1uM": 6.6}
{"smiles": "Cc1noc(NS(=O)(=O)c2ccc(NC(=O)CSc3ncccn3)cc2)c1C", "hERG current change (%, negative = inhibition) at 1uM": 1.73}
{"smiles": "CN(C)C(=O)c1c(-c2ccccc2)oc2ccc(O)cc12", "hERG current change (%, negative = inhibition) at 1uM": 8.92}
{"smiles": "COc1ccc([N+](=O)[O-])cc1N(CC(O)CN(CC(C)C)CC(C)C)S(=O)(=O)c1ccc(C)cc1.Cl", "note": "(stereo not drawn)", "hERG current change (%, negative = inhibition) at 1uM": -3.69}
